Results are given in words; binding and its absence hold for the method and conditions named. Binding seen in cells or lysates may run through a third protein. Some entries that bind do so weakly or less than the wild type.
Legend:
[1] = biological target: Metabotropic glutamate receptor 2 (mGlu2), endogenous mouse (mouse (endogenous in prefrontal cortex, brain slices and cortical neurons)) (UniProt Q14BI2); assay: co-IP; co-immunoprecipitation followed by Western blotting from PFC of wild-type and mGlu2-/- mice (fig. S1B)
[2] = biological target: Metabotropic glutamate receptor 2 (mGlu2), endogenous mouse (mouse (endogenous in prefrontal cortex, brain slices and cortical neurons)) (UniProt Q14BI2); assay: co-IP; primary mouse cortical neurons, 0.5 mg solubilized neuronal proteins, mGlu2 nanobody (2 μg); washes with 500 mM NaCl; neurons treated with LY379268 or 7,8-DHF (fig. S3)
[3] = biological target: Metabotropic glutamate receptor 2 (mGlu2), endogenous mouse (mouse (endogenous in prefrontal cortex, brain slices and cortical neurons)) (UniProt Q14BI2); assay: proximity ligation; mouse brain slices (OB, PFC, DG, CB) of wild-type or mGlu2-/- mice; anti-TrkB antibody, anti-6-His antibody and anti-mGlu2 nanobody (200 nM), 48 hours at 4°C; mice also injected with vehicle, LY379268, 7,8-DHF or LY341495
mGlu2-Venus (human) = mGlu2-Venus (human) (UniProt Q14416); assay: FRET or BRET; BRET saturation in HEK-293 cells: constant amount of Rluc donor construct (20 ng per 100,000 cells), increasing amounts of Venus acceptor construct (0 to 40 ng per 100,000 cells); coelenterazine H 5 μM; EAAC1 cotransfected
mGlu3-Venus (human) = mGlu3-Venus (human) (UniProt Q14832); assay: as above
[4] = biological target: human Flag-tagged mGlu2 (human) (UniProt Q14416); assay: proximity ligation; HEK-293 cells expressing human Flag-mGlu2 or Flag-mGlu3 with or without human TrkB; anti-TrkB and anti-Flag antibodies overnight at 4°C
[5] = biological target: human Flag-tagged mGlu3 (human) (UniProt Q14832); assay: as above
[6] = biological target: human Flag-tagged mGlu2 (human) (UniProt Q14416); assay: co-IP; HEK-293 cells transfected with human Flag-mGlu2 or Flag-mGlu3 with or without human TrkB; 1.5 mg solubilized proteins, anti-Flag M2 affinity gel beads, 4 hours at 4°C, washes with 500 mM NaCl; blot with anti-TrkB; cells also treated 15 min with vehicle, 7,8-DHF (1 μM), LY379268 (1 μM) or LY341495
[7] = biological target: human Flag-tagged mGlu3 (human) (UniProt Q14832); assay: as above

The chains behind the UniProt entries cited, without tags or fusion partners. Residues count along the entry.
UniProt Q14BI2, residues 19-872: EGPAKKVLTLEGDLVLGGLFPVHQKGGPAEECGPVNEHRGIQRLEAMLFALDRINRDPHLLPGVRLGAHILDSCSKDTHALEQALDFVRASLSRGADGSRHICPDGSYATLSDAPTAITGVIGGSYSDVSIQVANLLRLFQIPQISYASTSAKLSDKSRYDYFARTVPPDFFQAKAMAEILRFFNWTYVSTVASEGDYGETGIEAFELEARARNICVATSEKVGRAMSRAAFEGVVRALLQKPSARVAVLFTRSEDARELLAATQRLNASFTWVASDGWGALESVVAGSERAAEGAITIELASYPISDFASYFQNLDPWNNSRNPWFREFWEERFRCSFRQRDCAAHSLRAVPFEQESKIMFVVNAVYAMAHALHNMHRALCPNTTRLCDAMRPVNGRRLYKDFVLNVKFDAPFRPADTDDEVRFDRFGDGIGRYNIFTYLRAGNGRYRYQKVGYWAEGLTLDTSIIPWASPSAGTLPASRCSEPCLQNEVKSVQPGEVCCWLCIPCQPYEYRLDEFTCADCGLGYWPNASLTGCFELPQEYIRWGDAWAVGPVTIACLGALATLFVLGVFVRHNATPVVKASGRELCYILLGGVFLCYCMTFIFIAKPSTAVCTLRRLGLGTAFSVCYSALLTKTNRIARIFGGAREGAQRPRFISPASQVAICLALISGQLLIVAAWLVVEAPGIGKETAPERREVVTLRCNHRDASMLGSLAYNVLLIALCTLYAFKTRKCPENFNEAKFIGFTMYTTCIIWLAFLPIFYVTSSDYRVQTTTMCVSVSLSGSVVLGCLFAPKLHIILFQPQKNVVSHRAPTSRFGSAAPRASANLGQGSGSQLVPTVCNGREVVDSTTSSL
UniProt Q14416, residues 19-872: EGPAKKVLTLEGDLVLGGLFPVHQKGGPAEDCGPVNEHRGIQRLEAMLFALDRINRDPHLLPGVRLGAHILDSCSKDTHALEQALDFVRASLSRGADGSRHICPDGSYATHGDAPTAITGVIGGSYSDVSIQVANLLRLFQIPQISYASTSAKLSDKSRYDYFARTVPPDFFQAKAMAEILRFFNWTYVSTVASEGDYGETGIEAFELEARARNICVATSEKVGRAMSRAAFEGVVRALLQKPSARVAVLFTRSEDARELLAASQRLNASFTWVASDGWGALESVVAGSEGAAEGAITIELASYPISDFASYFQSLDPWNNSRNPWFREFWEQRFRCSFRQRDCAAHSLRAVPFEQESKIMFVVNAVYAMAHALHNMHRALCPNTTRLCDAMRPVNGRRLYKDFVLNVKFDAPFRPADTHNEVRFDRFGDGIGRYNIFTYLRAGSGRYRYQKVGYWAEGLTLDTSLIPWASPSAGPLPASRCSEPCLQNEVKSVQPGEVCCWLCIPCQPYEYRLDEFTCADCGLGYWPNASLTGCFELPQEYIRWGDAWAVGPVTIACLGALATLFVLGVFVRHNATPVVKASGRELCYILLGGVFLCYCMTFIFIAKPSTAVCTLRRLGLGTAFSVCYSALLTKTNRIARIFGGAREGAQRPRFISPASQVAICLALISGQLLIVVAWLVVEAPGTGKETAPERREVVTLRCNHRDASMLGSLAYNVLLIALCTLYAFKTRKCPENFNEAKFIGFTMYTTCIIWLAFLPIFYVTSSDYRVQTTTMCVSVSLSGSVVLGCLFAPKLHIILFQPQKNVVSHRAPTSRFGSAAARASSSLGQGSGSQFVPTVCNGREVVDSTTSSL
UniProt Q14832, residues 23-879: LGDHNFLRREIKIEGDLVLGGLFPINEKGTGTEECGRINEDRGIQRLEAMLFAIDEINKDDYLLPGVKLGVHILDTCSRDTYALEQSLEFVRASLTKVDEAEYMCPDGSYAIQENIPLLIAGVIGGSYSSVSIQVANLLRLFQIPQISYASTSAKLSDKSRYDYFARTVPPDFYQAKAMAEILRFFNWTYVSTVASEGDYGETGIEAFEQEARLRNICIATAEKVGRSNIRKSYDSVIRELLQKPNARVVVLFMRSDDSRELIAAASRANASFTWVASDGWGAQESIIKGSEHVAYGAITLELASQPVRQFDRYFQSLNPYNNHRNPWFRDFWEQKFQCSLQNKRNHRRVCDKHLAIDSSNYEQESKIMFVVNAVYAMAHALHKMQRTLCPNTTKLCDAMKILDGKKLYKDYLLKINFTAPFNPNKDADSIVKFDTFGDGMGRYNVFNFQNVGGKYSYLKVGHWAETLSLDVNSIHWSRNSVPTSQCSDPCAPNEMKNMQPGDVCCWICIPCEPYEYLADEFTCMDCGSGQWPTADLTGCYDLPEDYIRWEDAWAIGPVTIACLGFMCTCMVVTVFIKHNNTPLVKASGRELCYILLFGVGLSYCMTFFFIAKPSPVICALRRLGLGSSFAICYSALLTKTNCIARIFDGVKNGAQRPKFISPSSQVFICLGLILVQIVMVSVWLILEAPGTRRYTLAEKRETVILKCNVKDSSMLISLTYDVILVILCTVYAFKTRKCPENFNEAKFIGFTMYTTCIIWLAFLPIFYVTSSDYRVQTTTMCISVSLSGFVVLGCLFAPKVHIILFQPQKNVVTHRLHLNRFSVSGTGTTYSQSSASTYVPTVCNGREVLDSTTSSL
UniProt P15209, residues 32-821: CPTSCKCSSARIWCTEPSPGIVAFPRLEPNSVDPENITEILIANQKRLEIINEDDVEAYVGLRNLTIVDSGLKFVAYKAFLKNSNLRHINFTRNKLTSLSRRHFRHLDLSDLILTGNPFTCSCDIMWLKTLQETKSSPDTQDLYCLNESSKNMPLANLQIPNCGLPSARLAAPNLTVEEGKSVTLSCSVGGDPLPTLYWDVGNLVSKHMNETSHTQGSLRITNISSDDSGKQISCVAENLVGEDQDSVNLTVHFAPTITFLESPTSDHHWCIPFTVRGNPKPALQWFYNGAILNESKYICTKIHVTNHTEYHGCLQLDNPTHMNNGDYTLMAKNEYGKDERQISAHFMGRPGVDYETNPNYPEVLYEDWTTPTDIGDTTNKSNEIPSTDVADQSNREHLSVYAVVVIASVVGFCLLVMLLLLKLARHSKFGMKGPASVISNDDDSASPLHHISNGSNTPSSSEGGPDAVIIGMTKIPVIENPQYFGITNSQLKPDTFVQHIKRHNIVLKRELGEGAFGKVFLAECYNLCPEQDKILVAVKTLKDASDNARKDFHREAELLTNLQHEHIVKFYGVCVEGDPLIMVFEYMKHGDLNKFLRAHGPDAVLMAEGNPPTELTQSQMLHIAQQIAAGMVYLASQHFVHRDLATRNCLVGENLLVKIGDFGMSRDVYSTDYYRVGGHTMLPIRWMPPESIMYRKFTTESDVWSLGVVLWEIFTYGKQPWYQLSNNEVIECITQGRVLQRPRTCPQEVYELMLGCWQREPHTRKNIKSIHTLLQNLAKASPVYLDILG
UniProt Q16620, residues 32-822: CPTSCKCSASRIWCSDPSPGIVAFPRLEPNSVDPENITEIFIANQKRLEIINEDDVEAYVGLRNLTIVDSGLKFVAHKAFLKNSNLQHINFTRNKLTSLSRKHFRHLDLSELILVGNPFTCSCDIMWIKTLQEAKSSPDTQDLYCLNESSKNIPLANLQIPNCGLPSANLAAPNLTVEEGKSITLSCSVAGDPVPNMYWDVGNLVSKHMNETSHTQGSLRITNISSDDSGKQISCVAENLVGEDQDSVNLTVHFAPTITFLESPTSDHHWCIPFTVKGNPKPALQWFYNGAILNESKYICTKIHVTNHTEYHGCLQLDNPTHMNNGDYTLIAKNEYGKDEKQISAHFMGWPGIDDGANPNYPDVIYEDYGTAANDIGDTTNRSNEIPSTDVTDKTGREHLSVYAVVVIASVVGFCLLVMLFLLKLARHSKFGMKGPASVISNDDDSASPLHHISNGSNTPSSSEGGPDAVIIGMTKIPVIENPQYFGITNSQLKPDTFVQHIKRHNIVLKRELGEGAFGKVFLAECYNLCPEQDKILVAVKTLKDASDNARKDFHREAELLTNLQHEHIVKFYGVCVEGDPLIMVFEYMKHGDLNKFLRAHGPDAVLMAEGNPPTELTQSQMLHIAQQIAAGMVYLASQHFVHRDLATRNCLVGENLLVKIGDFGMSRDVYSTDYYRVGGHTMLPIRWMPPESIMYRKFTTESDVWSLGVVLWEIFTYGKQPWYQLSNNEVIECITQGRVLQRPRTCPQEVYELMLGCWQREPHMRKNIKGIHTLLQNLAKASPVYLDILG
UniProt P41594, residues 21-1212: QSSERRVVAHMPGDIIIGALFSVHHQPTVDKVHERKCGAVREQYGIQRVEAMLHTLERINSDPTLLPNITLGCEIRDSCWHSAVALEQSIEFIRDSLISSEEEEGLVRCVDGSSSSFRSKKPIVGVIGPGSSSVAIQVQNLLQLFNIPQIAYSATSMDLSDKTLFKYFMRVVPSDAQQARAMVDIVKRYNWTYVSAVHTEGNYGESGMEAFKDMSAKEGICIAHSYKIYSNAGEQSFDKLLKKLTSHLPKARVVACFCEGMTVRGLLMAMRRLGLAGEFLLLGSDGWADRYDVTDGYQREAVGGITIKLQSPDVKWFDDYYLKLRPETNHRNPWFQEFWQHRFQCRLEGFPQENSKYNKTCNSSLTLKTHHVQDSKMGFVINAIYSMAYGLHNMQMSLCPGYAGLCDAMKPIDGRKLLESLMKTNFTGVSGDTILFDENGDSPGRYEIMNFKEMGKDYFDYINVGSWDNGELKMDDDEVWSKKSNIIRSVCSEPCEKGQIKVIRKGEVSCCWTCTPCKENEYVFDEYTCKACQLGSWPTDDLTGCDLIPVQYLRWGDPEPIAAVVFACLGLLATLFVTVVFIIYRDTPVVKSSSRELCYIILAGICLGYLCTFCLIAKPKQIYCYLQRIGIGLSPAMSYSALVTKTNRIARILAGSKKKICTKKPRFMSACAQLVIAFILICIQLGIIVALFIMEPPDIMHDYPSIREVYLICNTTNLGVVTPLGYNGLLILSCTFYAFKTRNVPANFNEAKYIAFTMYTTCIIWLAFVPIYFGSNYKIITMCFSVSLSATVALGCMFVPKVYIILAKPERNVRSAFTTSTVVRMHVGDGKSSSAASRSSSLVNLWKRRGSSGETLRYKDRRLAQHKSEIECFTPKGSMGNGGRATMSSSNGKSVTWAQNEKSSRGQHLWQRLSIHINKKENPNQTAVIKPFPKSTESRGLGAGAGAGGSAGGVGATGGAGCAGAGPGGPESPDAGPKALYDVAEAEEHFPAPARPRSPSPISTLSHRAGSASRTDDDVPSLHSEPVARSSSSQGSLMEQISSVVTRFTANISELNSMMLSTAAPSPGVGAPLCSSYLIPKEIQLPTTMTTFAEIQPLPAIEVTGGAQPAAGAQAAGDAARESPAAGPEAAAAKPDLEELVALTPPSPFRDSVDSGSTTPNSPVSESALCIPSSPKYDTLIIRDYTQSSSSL

Question: With “BDNF/NT-3 growth factor receptor TrkB, endogenous mouse (from UniProt P15209 32-821)” as the substance, how does the binding [1] read?
Answer: Its binding is “binds”.

Question: And the binding [2]?
Answer: Its binding is “binds”.

Question: And the binding [3]?
Answer: The binding was “binds”.

Question: For “TrkB-Rluc (from UniProt Q16620 32-822) (receptor)”, which binding (mGlu2-Venus (human)) is on record?
Answer: Its binding is “binds”.

Question: And the binding (mGlu3-Venus (human))?
Answer: Its binding is “no binding”.

Question: With “human TrkB (from UniProt Q16620 32-822) (receptor)” as the substance, how does the binding [4] read?
Answer: The binding was “binds”.

Question: And the binding [5]?
Answer: Its binding is “no binding”.

Question: What about the binding [6] of the same substance?
Answer: The binding was “binds”.

Question: And the binding [7]?
Answer: The binding was “no binding”.

Question: How did the binding (mGlu2-Venus (human)) turn out when “mGlu5-Rluc (from UniProt P41594 21-1212) (receptor)” was run?
Answer: The binding was “no binding”.

Source: PMC10816717
